B1: TPR 5TU (parent)
chain: GGAUCUUCUCGAUCUAACAAAAAAGACAAAUCUGCCACAAAGCUUGAGAGCAUCUUCGGAUGCAGAGGCGGCAGCCUUCGGUGGCGCGAUAGCGCCAACGUUCUCAACUAUGACACGCAAAACGCGUGCUCCGUUGAAUGGAGUUUAUCAUG

Variants at the floor of the assay are shown more often than the library holds them.

Variants of B1 are the subject of the data set. Briefly: polymerase ribozyme fitness, log enrichment relative to wild type (log ratio); higher = more active; in vitro selection for triplet polymerase activity. The method, boiled down:
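Mutant libraries were PCR-built and transcribed for each subunit of a heterodimeric triplet polymerase ribozyme and selected for one round in triplicate at −7 °C, frozen, before gel excision of extended constructs and streptavidin-bead capture. Input and output libraries were Illumina-sequenced, keeping genotypes with ≥10 input reads and ≥1 read per output. Fitness is a logarithmic ratio of genotype to wild-type enrichment, in base 2, using inverse-variance-weighted replicate averages.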
Regarding U15G G42A C75A G83U A122U G128A, the “polymerase ribozyme fitness (log ratio)” value was at most -4.2.
In the case of A16C U31G A47C C76A C85U A89G it was at most -4.2; in that of A16G G94A G143C, -3.22.
The same measure for A16G C27G C93A G112C: at most -4.2.
In the case of A16G G74A C79U G88A A91U G100A U104G U146G it was at most -4.2.
In the case of U15G U45A G48C U61A C76A A89U C93U A97C, the “polymerase ribozyme fitness (log ratio)” value was at most -4.2.
In the case of A16C A40C G83A A97G it was -0.914.
As for U15G C54U A60U C75G A113G, the “polymerase ribozyme fitness (log ratio)” value is at most -4.2.
As to U15G U56G C75U U109C C114G A115G G117A C125A U135G, the “polymerase ribozyme fitness (log ratio)” value was at most -4.2.
The same measure for A16C G86U: -2.65; for U15G A39G U53A: -4.01.
The same measure for U15G G34A A37C G62C C76U C108U C125A: at most -4.2.
In the case of A16C C51A C54G C57A C96A G117U U135G it was at most -4.2.
In the case of A16C C75G C76G G92C C108A, the “polymerase ribozyme fitness (log ratio)” value was at most -4.2.
On to U15G A20C G42U A52G C85U C93G C103A, for which the “polymerase ribozyme fitness (log ratio)” value is at most -4.2.
The same measure for U15G A40C A47G C51U C57G A91G C96G: at most -4.2.
Take A16G A23C G84A A106G A107G C118U C129A U146G: the “polymerase ribozyme fitness (log ratio)” value was at most -4.2.
In the case of U15G G58C G70C A91U it was at most -4.2.
The same measure for A16G U44A A49C C99A U101C G140A: at most -4.2.
The same measure for A16G A20U G46U A60G A138C: at most -4.2; for U15G C93A U109C: at most -4.2.
On to A16C C32A C57U G70A C76A A89C G141U A142U, for which the “polymerase ribozyme fitness (log ratio)” value was at most -4.2.
The same measure for A16C C43A U77G C95U U102A C105U G141U: at most -4.2.
In the case of U15G G46U G65A G68C C85U C116G it was at most -4.2; in that of A16G C43G U61G, at most -4.2.
On to A16G C76G C87U A120U A138G, for which the “polymerase ribozyme fitness (log ratio)” value was at most -4.2.
As for A16C A40C G59A C93U A106G, the “polymerase ribozyme fitness (log ratio)” value is -2.02.
The same measure for A16C G58C A60G G83U C116U: -0.784; for A16C G50C G59C: at most -4.2; for A16G C85U A91C C103U A106G U127C U151A: at most -4.2.
In the case of A16C A19G A20G U31G G48C U53A G65C G86U U130G it was at most -4.2.
The same measure for A16G A47C U53C U102G: at most -4.2.
With U15G A66G C96U, the “polymerase ribozyme fitness (log ratio)” value was at most -4.2.
With A16C U31A G58C G80C C95U A122G G143A, the “polymerase ribozyme fitness (log ratio)” value was at most -4.2.
In the case of A16G U44A C54U A106C G112A A115G C131U A138U it was at most -4.2; in that of U15G A22C A28G A89G G92A G136A G143C, at most -4.2; in that of U15G G25U, -3.22.
The same measure for A16C C35A C54G: at most -4.2; for A16C G84A C105G C114U C125A U144A U151G: at most -4.2; for A16G C43A C79G C85U A106G C118U G141C: at most -4.2.
On to A16C U55A, for which the “polymerase ribozyme fitness (log ratio)” value was -1.28.
In the case of A16G C57A it was -0.592.
In the case of A16C A22G C27A C75G U78G C85U C95G U135C it was at most -4.2; in that of U15G A89C A119U, -0.888.
In the case of A16G C18U A24U C38U A49C G50A G88C C105U G117U it was at most -4.2; in that of A16C G48A G62A G81U C85A U102G A137G, at most -4.2.
Regarding A16C C18G A22G C27U A52G U61A A73G C85A U127C U139C, the “polymerase ribozyme fitness (log ratio)” value is at most -4.2.
The same measure for U15G C69U C93A C96A G143U U151G: at most -4.2.
In the case of A16C U31C G50A G86A it was -3.16; in that of U15G A29C U56A G71U G83A C85A G128A, at most -4.2.
In the case of A16C U101G it was -0.303; in that of U15G A110G, -3.59; in that of A16G G46U, -1.19.
For the variant A16G G58C C118U C131G U144G, the “polymerase ribozyme fitness (log ratio)” value is at most -4.2.
In the case of A16C A23U U31C A47G C54U G92U G117U it was at most -4.2; in that of A16C G42A, at most -4.2.
The same measure for A16C A40U C93A A122G G141C: at most -4.2.
The same measure for U15G A26U C38U A64G G74A G86U U146G: at most -4.2; for A16C A26G G83C G88C C99A: at most -4.2; for A16G C35U C116G: -1.98.
In the case of A16G C57A G86C G124U, the “polymerase ribozyme fitness (log ratio)” value is -3.24.
The same measure for A16G A20U A21U C85A U109G: at most -4.2.
The same measure for A16G A17C U31A U55G C57G A115C U135A: -3.86; for A16G C35U G62U G71A C85G U104A: at most -4.2; for A16G C36A G80U C99U G126C U148C: at most -4.2.
In the case of A16G A41C U55G A142C it was -3.52; in that of A16C G59C, -0.987.
Turning to U15G C27G G48A U61A C93U, the “polymerase ribozyme fitness (log ratio)” value was at most -4.2.
The same measure for A16C C32U U44G G71A C87G C95U A98G A110U C116U: at most -4.2.
Regarding A16C U101G U127A, the “polymerase ribozyme fitness (log ratio)” value was -3.71.
In the case of U15G C103A it was -1.91; in that of U15G A28C C36U A60U, at most -4.2.
As to A16G C79A C93U A115U C129U U144C, the “polymerase ribozyme fitness (log ratio)” value was at most -4.2.
In the case of A16G A17U A26C G42C C43U G70A U102C G140C it was at most -4.2; in that of A16G A39U C43G G50U G67C U109A U134A U139C, at most -4.2; in that of U15G C38A G88U C116U G136A G141C U145A, at most -4.2.
For the variant A16C G34C C35G A73U C87A A119C A142U, the “polymerase ribozyme fitness (log ratio)” value was at most -4.2.
As to A16G A29U A47C G48C C57A G124U C125G C131U, the “polymerase ribozyme fitness (log ratio)” value was at most -4.2.
In the case of A16G A17U A41U C93U C125U U134G it was -4.05; in that of A16G U31G A49U, at most -4.2.
In the case of A16C A20U A24U A40C C79A C99G U144G, the “polymerase ribozyme fitness (log ratio)” value was at most -4.2.
The same measure for A16C G48A A66U C75U C87G: at most -4.2; for A16G U31A G50C G80C C95U A122U: at most -4.2.

These data come from the RNAGym collection of RNA variant scans (doi:10.1073/pnas.2313332121).
